Literature values as cited in article PMC9889658, “The structure of MadC from Clostridium maddingley reveals new insights into class I lanthipeptide cyclases” (Frontiers in Microbiology, 2023).
No end group written: not given here.

Settings: ref Garg et al., 2012
Source text: Alternatively, the β-sheet could be essential for the predicted 4 intertwined rings at the C-terminus of MadA. To predict the rings in maddinglicin RiPPMiner was used ([Agrawal et al., 2017], [2021]). Furthermore, BAGEL4 and RiPPMiner also identified structurally related or sequence similar lantibiotics such as geobacillin I (GeoI; [van Heel et al., 2018]). […] Due to the high similarity, these lantibiotics likely share the same ring architecture (or also similar ring size), which w ...

## MAKFDDFDLDIVVKKQDDVVQPNVTSKSLCTPGCITGVLMCLTQNSCVSCNSCIRC (also: bicyclic or more (positions not given here)) [GeoI]
  stability compared to NisA: higher stability
